# From paper PMC4336329 (PLoS ONE, 2015)
# Among all 310,000 compounds or so, about 2,200 (0.71%) showed an effect of 50% or more. Effects have a minus sign here. This is one part of the list.
# Biological target: human ether-à-go-go-related gene (hERG) potassium channel (human, UniProt Q12809)
# Assay: primary screen, population patch clamp on CHO cells stably expressing hERG
# human ether-à-go-go-related gene (hERG) potassium channel, sequence (Q12809 whole entry, looked up): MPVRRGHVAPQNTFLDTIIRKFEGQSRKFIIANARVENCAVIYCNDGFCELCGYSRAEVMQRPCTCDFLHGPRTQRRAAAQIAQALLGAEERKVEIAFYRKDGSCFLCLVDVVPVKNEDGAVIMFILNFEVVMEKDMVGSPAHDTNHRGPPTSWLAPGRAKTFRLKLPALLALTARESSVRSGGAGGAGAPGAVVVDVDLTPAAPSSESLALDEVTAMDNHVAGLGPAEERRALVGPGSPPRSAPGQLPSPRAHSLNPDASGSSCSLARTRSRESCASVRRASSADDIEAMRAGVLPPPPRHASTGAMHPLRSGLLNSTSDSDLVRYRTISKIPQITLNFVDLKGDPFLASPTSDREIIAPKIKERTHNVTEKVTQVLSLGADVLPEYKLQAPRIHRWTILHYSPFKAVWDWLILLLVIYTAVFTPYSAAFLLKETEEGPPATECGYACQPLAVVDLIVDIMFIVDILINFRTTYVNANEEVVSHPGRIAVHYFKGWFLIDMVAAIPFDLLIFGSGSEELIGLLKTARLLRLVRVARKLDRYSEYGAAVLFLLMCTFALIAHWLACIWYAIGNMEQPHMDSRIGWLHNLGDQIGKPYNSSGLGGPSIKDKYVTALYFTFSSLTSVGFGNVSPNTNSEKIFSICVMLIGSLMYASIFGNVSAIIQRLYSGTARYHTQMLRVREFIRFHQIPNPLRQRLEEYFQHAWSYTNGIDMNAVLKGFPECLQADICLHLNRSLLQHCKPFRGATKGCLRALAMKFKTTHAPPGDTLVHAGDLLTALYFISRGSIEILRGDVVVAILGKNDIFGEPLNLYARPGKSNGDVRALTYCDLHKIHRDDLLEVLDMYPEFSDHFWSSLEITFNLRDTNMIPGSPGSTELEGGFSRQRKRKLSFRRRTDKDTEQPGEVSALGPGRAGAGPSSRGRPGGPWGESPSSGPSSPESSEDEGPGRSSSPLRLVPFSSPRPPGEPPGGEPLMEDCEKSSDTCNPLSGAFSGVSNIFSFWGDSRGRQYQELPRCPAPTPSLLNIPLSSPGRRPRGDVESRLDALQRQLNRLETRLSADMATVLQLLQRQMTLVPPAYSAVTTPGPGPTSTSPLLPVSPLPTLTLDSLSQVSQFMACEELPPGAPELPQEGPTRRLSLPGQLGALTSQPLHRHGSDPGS
row,Compound,"hERG current change (%, negative = inhibition) at 1uM [%]"
1,CC1(C)CC2CC(C)(CN2S(=O)(=O)c2ccc(C(=O)Nc3ccc(Cl)c(S(=O)(=O)N4CCOCC4)c3)cc2)C1 (stereo not shown),2.28
2,O=C1CSC(=Nc2ccc(Cl)cc2)N1Cc1ccco1,8.12
3,Cc1cc(NC(=O)c2c(-c3c(F)cccc3Cl)noc2C)no1,5.47
4,O=C(Nc1ccc2c(c1)CCC2)c1cc(S(=O)(=O)Nc2ccc(F)cc2)c(Cl)cc1Cl,3.03
5,Clc1ccc(-c2nc(NCCCN3CCOCC3)c3ccccc3n2)cc1,11.5
6,Cc1cc(C)c(C)c(S(=O)(=O)NCc2ccc(C(=O)N3CCCCC3)cc2)c1C,4.38
7,CN(c1nc2ccccc2n2c(-c3ccco3)nnc12)S(=O)(=O)c1ccccc1,-5.43
8,COc1ccc(S(=O)(=O)N(CC(N)=O)C2CCCCC2)cc1Cl,10.7
9,Cc1ccc(-c2nn3c(C)nnc3s2)cc1NC(=O)c1ccco1,0.0635
10,O=C1C2(c3ccccc3)CN3CN(C2)CC1(c1ccccc1)C3,-1.04
11,COc1cccc(NC(=O)Nc2nnc(CC(=O)NCc3ccccc3)s2)c1,5.05
12,C=C1C2(C(=O)Nc3ccc(SC(F)F)cc3)CCC(C2)C1(C)C (stereo not shown),10.6
13,Cc1ccc(N2C(=O)[C@@H]3Cc4ccccc4CN3C2=O)cc1,0.887
14,COc1cc(CNCCCN2CCOCC2)c(Br)cc1OCC(=O)Nc1ccccc1C,14.4
15,CCCCN(CCCC)CC(O)Cn1c2ccccc2c(=O)c2ccccc21 (stereo not shown),-42.7
16,Cc1nnc(CN(C)C(=O)c2cc(COc3ccc(C)c(C)c3)on2)o1,12.2
17,CCCCNC(=O)C1CCCN1C(=O)NC1CCCCC1 (stereo not shown),12.5
18,CC(C)Nc1oc(Cc2cccc3ccccc23)nc1C#N,-13.3
19,CN(C(=O)CN1CC=C(c2ccccc2)CC1)c1c(N)n(Cc2ccccc2)c(=O)[nH]c1=O,17.7
20,CC1Cc2cc(/C(O)=C3\C(=O)C(=O)N(Cc4cccnc4)C3c3ccccc3F)ccc2O1 (stereo not shown),8.65
21,CC(=O)Nc1c(-c2ccc(Cl)cc2)c(=O)c2ccccc2n1C,6.75
22,Cc1ccc(NC(=O)CSc2nc(=O)n(CCN(C)C)c3c2CCCC3)cc1Cl,-5.68

row,Compound,"hERG current change (%, negative = inhibition) at 1uM [%]"
1,Cc1ccc(N2C(=O)CS/C2=N\C(=S)Nc2ccccc2)cc1,15
2,CCOCCCn1c(=S)[nH]c2cc(C(=O)NC3CCCC(C)C3C)ccc2c1=O (stereo not shown),7.82
3,O=C(c1ccccc1)C(C(=O)N1CCc2ccccc2C1)n1ccccc1=O (stereo not shown),4.66
4,COc1ccc(CCNCCN2CCOCC2)cc1.Cl,15.1
5,C=CCn1c(CC(=O)Nc2ccc(C)cc2C)nnc1SCC(=O)N1CCOCC1,14.6
6,O=C(CCCNS(=O)(=O)c1cccc2nsnc12)N1CCCCC1,17.2
7,Cc1ccc(C(O)c2nc3ccccc3n2C(C)C)cc1 (stereo not shown),16
8,Cc1ccc(-c2ccc(C(=O)Nc3ccccc3)o2)c2ccccc12,2.6
9,Cc1cc(=O)n2[nH]c(-c3ccccc3)cc2n1,11.2
10,Cn1nccc1-c1cc(Cl)cc(Cl)c1O,14.3
11,COc1ccc(S(=O)(=O)N2CCCCCC2)cc1C(=O)OCc1c(C)noc1C,5.35
12,Cc1ccc(-c2cc(C(=O)Nc3c(C#N)cnn3C)no2)cc1,1.51
13,COc1ccc2c(/C=C/c3cc[n+](C)cc3)c[nH]c2c1.[I-],6.76
14,COc1ccccc1N1CCN(C(=O)CCNS(=O)(=O)c2ccc3c(c2)CCC(=O)N3)CC1,7.88
15,O=c1[nH]cnc2cc(-c3ccccc3)sc12,-0.187
16,CC(C)c1ccc(CCNC(=O)CCNS(=O)(=O)c2ccc(Br)cc2)cc1,9.33
17,COc1ccccc1-n1c(=O)[nH]c2c(C(N)=O)nc(-c3cccnc3)nc21,15.9
18,C=CCNC(=S)NNC(=O)c1ccc(Br)o1,6.63
19,O=C1CC2(CCN(C(=O)COc3ccc(F)cc3)CC2)Oc2ccccc21,-17
20,COc1ccc(OCC(=O)Nc2ccc3c(c2)OCO3)cc1,11.7
21,Cc1ccc([N+](=O)[O-])cc1NC(=O)Nc1ccc(S(N)(=O)=O)cc1,10.3
22,COc1ccccc1C(C)NC(=O)c1ccc(NC(=O)CC2SC(N3CCCC3)=NC2=O)cc1 (stereo not shown),9.73

row,Compound,"hERG current change (%, negative = inhibition) at 1uM [%]"
1,Cc1cc(C)n(-c2nc3c(c(=O)[nH]c(=O)n3C)n2CC(O)COc2ccc(Cl)cc2Cl)n1 (stereo not shown),6.36
2,COc1ccc(NC(=O)NCCN2CCN(c3ccc(C)cc3)CC2)c(Cl)c1,10.5
3,Cc1cccc(OCC(O)Cn2c(NCCCOC(C)C)nc3c2c(=O)[nH]c(=O)n3C)c1 (stereo not shown),15.5
4,CCOc1cc(C(=S)N2CCOCC2)cc(Br)c1OS(=O)(=O)c1ccccc1,9.96
5,Cc1ccc2nc(SCC(=O)Nc3ccccc3F)nc(=O)n2c1,0.366
6,Cc1ccc(NC(=O)CCn2nnc3ccccc32)cc1,11.5
7,Cc1ccc(C)c(NS(=O)(=O)c2cc(C(=O)Nc3ccccc3-c3ccccc3)ccc2C)c1,20.7
8,CC(C)c1ccc(NC(=O)NC2CCN(CC(=O)Nc3cccc4ccccc34)CC2)cc1,0.726
9,CCOc1ccc(CNC(=O)c2ccc3nc(N4CCOCC4)sc3c2)cc1,11.9
10,CCOC(=O)C1CCCN(C(=O)C(C)(C)Oc2ccc(Cl)cc2)C1 (stereo not shown),9.7
11,Cc1cccc(-c2cc3nc(-c4ccccc4)cc(N4CCC5(CC4)OCCO5)n3n2)c1,3.79
12,O=C(CSc1nnc(CNC(=O)c2cccs2)o1)Nc1ccc(F)cc1F,10.7
13,Cc1ccc(C(=O)NNC(=O)c2ccc(C)cc2)cc1,10.1
14,Cc1ccc(-n2nnnc2Sc2nc([N+](=O)[O-])nn2C)cc1,-2.24
15,Cc1c(NC(=O)COc2cccc3c2OC(C)(C)C3)c(=O)n(-c2ccccc2)n1C,9.98
16,CCNC(=S)N/N=C(\C)c1cc2ccccc2o1,8.88
17,CCSc1nnnn1-c1ccccc1,12.6
18,CCC(C)(C)C1CCC2(CC1)NC(=O)N(CC(=O)N1CCN(S(=O)(=O)c3cc(C)ccc3C)CC1)C2=O (stereo not shown),7.25
19,O=C(CSC(=S)N1CCOCC1)Nc1nc(=O)c2ccccc2s1,11.2
20,O=[N+]([O-])c1ccc(-c2ccc(S(=O)(=O)N3CCOCC3)cc2)cc1,1.45
21,O=C(O)c1ccc([N+](=O)[O-])c(CS(=O)(=O)c2ccccc2)c1,11.9
22,COc1ccc2c(C)c(Cl)c(=O)oc2c1,2.08

row,Compound,"hERG current change (%, negative = inhibition) at 1uM [%]"
1,COc1cccc(N2CCN(C3CCCC(C)C3)CC2)c1 (stereo not shown),-8.58
2,O=c1[nH]c(=O)n(C2CCCCCC2)c(O)c1C=NCC1CCCO1 (stereo not shown),11.7
3,CC1CCCCC12NC(=O)N(CC(=O)Nc1sccc1C(N)=O)C2=O (stereo not shown),10.1
4,O=C(NCCc1ccccc1)C1CCC(=O)N1C1CCCC1 (stereo not shown),10.5
5,COc1cc(O)c(NC(C)=O)c2nonc12,10.8
6,O=C(Oc1cccc2ccccc12)c1cc(Cl)nc2ccccc12,-3.46
7,CCN(CC)S(=O)(=O)c1ccc2c(c1)N(CC(=O)N1CCCC1)C(=O)CO2,-8.49
8,O=S(=O)([O-])c1ccc(N2N=C(c3ccccc3)CC2c2ccccc2)cc1.[Na+] (stereo not shown),5.69
9,CC(Oc1ccc(-c2ccccc2)cc1)C(=O)N/N=C/c1cccnc1 (stereo not shown),7.56
10,COC(=O)N/N=C/c1ccc(OC(=O)/C=C/c2ccco2)cc1,10.7
11,COc1ccc2cc(-c3ccccc3)ncc2c1,11.7
12,Nc1nc(CN2CCN(Cc3ccccc3)CC2)nc(Nc2ccc3c(c2)OCCO3)n1,-52.3
13,Cc1nn(Cc2ccc([N+](=O)[O-])cc2)c(=O)n1-c1cccc(F)c1,10.4
14,CCn1ccnc1CNC(=O)CC1C(=O)NCCN1Cc1ccc(OC)cc1OC (stereo not shown),9.16
15,NC(=O)c1ccccc1NC(=O)c1ccccc1F,0.365
16,O=C(NCCN1CCN(c2ccccc2)CC1)c1cccn2c(=O)c3ccccc3nc12,-10.8
17,CCOc1ccc2oc(C(=O)OCC(=O)NC3CCCCC3)c(C)c2c1,-7.14
18,COc1ccc(-c2cc(C(F)F)n3ncc(C(=O)Nc4cccc(S(=O)(=O)N5CCOCC5)c4)c3n2)cc1,4.57
19,CCNc1oc(-c2cccc3ccccc23)nc1C#N,12
20,O=C(Nc1nc2ccccc2[nH]1)c1cccc([N+](=O)[O-])c1,14.6
21,CCOCCCNC(=O)Cc1c(C(=O)O)[nH]c2ccc(Cl)cc12,6.44
22,CC(=O)Nc1ccc(C(=O)OCC(=O)N2CCN(C(=O)c3ccco3)CC2)cc1,7.29
